# From ChEMBL document CHEMBL4888484, “Replenishing the malaria drug discovery pipeline: Screening and hit evaluation of the MMV Hit Generation Library 1 (HGL1) against asexual blood stage Plasmodium falciparum ,using a nano luciferase reporter read-out” (2022)
# Among all 150,000 compounds or so, about 540 (0.36%) showed an effect of 50% or more. The list shows a part of the results.
# Tested on: Plasmodium falciparum
# Assay: Primary screen in NF54 nanoGlo assay, in single point, at 2uM, 72h; a lower Z score goes with more inhibition
# Type: functional, Erythrocyte
# Conditions: timepoint 72 hour
SMILES,% Inhibition [%],Z score
CC(C)C(=O)NCCc1noc(Cc2ccccc2)n1,-7,0.87
C=CCC(C(=O)NC1CC[C@@H](O)[C@@H](O)C1)c1ccccc1 (stereo not given in full),-16,1.98
Cc1ccccc1N1CCN(S(=O)(=O)c2cc(-c3nc(C)c(C)s3)cs2)CC1,1,-0.16
Cc1cc(Br)cc(C(=O)N[C@@H](C)c2nc[nH]n2)c1,32,-3.64
C#Cc1cccc(N(Cc2ccco2)Cc2cc(=O)n(C)c(=O)n2C)c1,9,-1.43
CCn1cc(C#N)c(=O)n(CC(=O)N2CCN(c3cccc(C(F)(F)F)c3)CC2)c1=O,-9,0.94
CCCCN(C)C(=O)Cn1cccc(S(=O)(=O)N2CCC(C)CC2)c1=O,-4,0.6
Cc1ncsc1CNC(C)CC(O)c1ccco1 (stereo not given),0,-0.01
N#Cc1cccc(CN[C@H]2CCN(CC(F)(F)F)C2)c1,-5,0.74
CC[C@H]1CCc2c(sc(=O)n2Cc2nccn2C(F)F)C1,-40,4.74
C#CCOc1ccc(N(C)Cc2nnc(CC)n2C)cc1,-7,0.94
Cc1nc(CN[C@H](c2cc(F)ccc2F)C2CC2)oc1C,5,-0.66
COc1ccc(CN2C(=O)N[C@@H](CC(=O)Nc3ccccn3)C2=O)cc1OC,-10,1.29
CCc1ccc(N2C(=O)c3cc(-c4ccc(OC)cc4)nn3C[C@@]2(C)C(=O)NCc2ccccc2OC)cc1,12,-1.85
N#Cc1c2n(c(=O)n(CC(=O)N(Cc3ccccc3)Cc3ccccc3)c1=O)CCC2,12,-1.45
Cc1cc(C)c(C#N)c(NCc2cc(CC(C)C)no2)n1,-8,0.89
CC(=O)N1CCO[C@@H](CNC(=O)c2ccn(C)c2C)C1,-5,0.72
Cc1cc(C)n2c(-c3nc(C4CC4)n[nH]3)nnc2n1,-14,2.56
COCCNC(=O)COc1ccc2c(C(C)C)cc(=O)n(CC3CC3)c2c1,-8,0.92
COC(=O)C1(NCc2noc(C)n2)CCC1,-15,1.89
Cc1cc(C)cc(CN2CCN(Cc3cnn(C)c3C3CC3)CC2=O)c1,-5,0.65
CCOC(=O)C1CCCN(C(=O)C2CCCN(c3cccc4c3C(=O)N(Cc3ccccc3Cl)C4=O)C2)C1 (stereo not given),4,-0.67
Cc1ccc(CC(C)NC(=O)NCCC2CCCO2)s1 (stereo not given),-22,2.04
C[C@]1(Cc2cc(F)c(F)c(F)c2)CCC(=O)N1,-10,1.31
O=C1CCCc2cc(-c3csc(NC4CC4)n3)ccc2N1,-8,1
O=S(=O)(Nc1ccc2c(c1)COC2)c1cnn(CC(F)F)c1,-3,0.33
CO[C@H]1C[C@H]2CC[C@@H](C1)N2C(=O)c1ccc(F)c(Cl)c1,-12,1.82
Cc1c[nH]c(C(=O)N[C@@H]2COCC[C@@H]2OCC2CCC2)n1,-12,2.3

SMILES,% Inhibition [%],Z score
Cc1onc(CC(=O)NC2(C)CCOC2C)c1C#N (stereo not given),-14,2.15
CC(C)c1csc(-c2c(-c3ccccc3)ncn2[C@@H](CO)C(C)C)n1,-3,0.43
Fc1ccc2ccnc(N3CCC[C@@]4(CCOC4)C3)c2c1,-9,1.8
CCn1c(C)cc(=O)c(C(=O)O)c1COc1ccccc1,-5,0.68
Brc1ccc2nc(N3CCCC3)nc(-c3ccccc3)c2c1,-7,0.87
CC(C)[C@@H]1CN(Cc2nnc(C3CC3)o2)CCCN1Cc1ccc(F)cc1,-2,0.42
N#CCN1CCC(CNC(=O)C2CC=CC2)CC1,-12,1.01
CCOCCCNCc1ccc(F)cc1,-10,1.59
Cc1csc([C@@H]2CCCN2Cc2ccc3cn[nH]c3c2)n1,-14,1.23
COc1cc(-c2n[nH]cc2-c2nc3cc(C)c(C)cc3[nH]2)cc(OC)c1OC,-5,0.93
Cc1cccc(NC(=O)Cc2csc(-n3nc(C)c(Cl)c3C)n2)c1C,-16,2.98
CCn1cc(C(=O)NCc2cc(=O)n3ccccc3n2)c(C)n1,-4,0.71
CCC[C@H]1CN(S(=O)(=O)c2cc(C)cc3cccnc23)C[C@@H]1N,-5,0.63
CC1CN(C(CNS(=O)(=O)c2cnn(C)c2)c2c(F)cccc2Cl)CCO1 (stereo not given),-1,0.1
COC1CCCN(c2ncnc(N3CCCC(OC)C3)c2C)C1 (stereo not given),-1,0.08
O=C(c1ccc[nH]1)N1CCC[C@H]1c1ccc2c(c1)OCCCO2,2,-0.23
CC(C)(C)C(=O)NCCCC(=O)N1CCCCCC1,-7,0.95
CC[C@@H](C(=O)NC(C)(C)C)N1CC(Oc2ccccc2)C1,-2,0.47
CCCCNc1cc(N2CCC[C@H](c3nc(C)no3)C2)nc(N)n1,2,-0.3
Cc1ccc(-n2cc(-c3ccccc3)nc2NC(=O)CN(CCN2CCOCC2)C(=O)c2ccccc2)cc1F,-10,1.9
CN1CCN(C[C@H]2CN(c3ccc4nnc(C(F)(F)F)n4n3)CCO2)CC1,5,-0.85
COc1ccc(F)c(CN2CC[C@](C)(O)[C@H](C)C2)c1,-5,0.96
Cc1cccc(S(=O)(=O)Nc2nnc(C3CC3)o2)c1Br,5,-0.67
CNC[C@H]1CCCN1C(=O)COc1ccc(C)cc1C,1,-0.14
OCC#Cc1ccc(CN[C@H]2CCCN(c3ncccn3)C2)s1,-16,1.46
Cc1c(C(=O)Nc2nc3c(s2)CCCC3)nnn1C1CCNCC1,10,-1
Cn1c(=O)c2c(nc(N3CCCCC3)n2CCNC2=NCCCCC2)n(C)c1=O,-7,0.86
